B1: GST-CHKα (enzyme, human)
chain: MKTKFCTGGEAEPSPLGLLLSCGSGSAAPAPGVGQQRDAASDLESKQLG[about 400 residues left out]
B2: bacterially purified ENO1 (enzyme)
chain: not shown

The target in one assay is His-TRIM25 (human, UniProt Q14258). Nature of the assay: pull-down.
The target of the assay “GST-CHKα” is B1. Nature of the assay: pull-down.

With B1, in the assay with His-TRIM25, the binding result is “binds”.
On to B2, for which the binding result in the assay with GST-CHKα was “binds”.
